From PubChem BioAssay AID1865 (National Center for Advancing Translational Sciences (NCATS), 2009)
About 540 (0.19%) of roughly 280,000 compounds were called active. Inconclusive results (about 2%) are left out. The call rests on the fitted dose curve; in most records, active means well fitted activation curve with a large enough effect; inconclusive means small, poorly fitted or top-dose-only effect; inactive means flat fitted curve, though single readings scatter. Only a part is listed here, and it is no random draw. Non-standard residues stand in square brackets, D forms with d. Residues, ends and D or L forms follow the SMILES beside them. Nle = CCCC[C@H](N)C(=O)O

experiment: Quantitative High-Throughput Screen for Regulators of Epigenetic Control; conditions: murine LDR cells, GFP reporter derepression, 30 h; series mostly up to 53.9 µM; GFP activation: at the top concentration; further: nearly all actives have a fitted effect of over 60% in size; on GFP activation: % of control where 0% means no effect
Description: NIH Molecular Libraries Screening Centers Network [MLPCN] NIH Chemical Genomics Center [NCGC] MLSCN Grant: 1 X01 MH079860-01 Assay Provider: Elisabeth D. Martinez, University of Texas SW Medical Center NCGC Assay Overview: The Locus Derepression (LDR) assay detects the derepression or induction of a GFP reporter that is stably integrated in a genomic region of murine cells that is presumably silenced. Transcription of the GFP reporter is controlled by a CMV promoter, which normally is constitutively active. However, this cell line, termed LDR, was selected for lack of constitutive production of GFP. GFP production can be induced by incubating the cells with histone deacetylase or DNA methyltransferase inhibitors (Martinez et al., 2006). Compounds that derepress or induce this reporter locus are identified by enumerating GFP positive cells using a laser-scanning microplate cytometer (Auld et al., 2006). This assay was screened against the MLSMR earlier (AID 597; (Johnson et al., 2008) and has been rescreened here against the expanded collection.
NCGC Assay Protocol Summary: Three hundred LDR cells in 5 uL per well were dispensed into black, clear-bottom 1536-well plates. Twenty-three nL compound was transferred to the assay plate and cells were incubated 30 hours at 37 C. Medium was removed, cells were washed two times with PBS, and GFP-positive cells were enumerated as fluorescent objects between the sizes of 20 to 120 um width and depth using an Acumen Explorer. References Auld, DS, Johnson, RL, Zhang, YQ, Veith, H, Jadhav, A, Yasgar, A, Simeonov, A, Zheng, W, Martinez, ED, Westwick, JK, Austin, CP, Inglese, J (2006). Fluorescent protein-based cellular assays analyzed by laser-scanning microplate cytometry in 1536-well plate format. Methods Enzymol 414: 566-89. Johnson, RL, Huang, W, Jadhav, A, Austin, CP, Inglese, J, Martinez, ED (2008). A quantitative high-throughput screen identifies potential epigenetic modulators of gene expression. Anal Biochem 375: 237-48. Martinez, ED, Dull, AB, Beutler, JA, Hager, GL (2006). High-content fluorescence-based screening for epigenetic modulators. Methods Enzymol 414: 21-36.
Potency means the concentration at half of the fitted maximal effect.

Compound | GFP activation | Potency
CC1(C)CC(CCNC(=O)c2ccco2)CC(C)(C)N1 | inactive: -16.8% | –
COc1cccc(/C=N/n2c(C)nc3ccccc32)c1OC | inactive: -6.35% | –
OCc1cc(C(O)CNCCCCCCOCCCCc2ccccc2)ccc1O (centres undefined) | – | inactive
CN1/C(=C/C=C(C#N)C#N)C(C)(C)c2ccccc21 | inactive: 0.806% | –
CCOc1ccccc1NC(=O)CN(C)S(=O)(=O)c1ccc(OC)c(C)c1 | inactive: 0% | –
CCOc1cc(-c2noc(CCCC(N)=O)n2)cc(Br)c1OC | inactive: -4.43% | –
CCCCCCc1ccc(O)cc1O | inactive: 13.1% | –
O=C(c1noc2c1CCc1ccccc1-2)N1CCOCC1 | inactive: -3.17% | –
Cc1cc(C)c(NC(=O)Cn2cnc3c(oc4ccccc43)c2=O)c(C)c1 | inactive: -2.94% | –
Cc1cccc2cc(C#N)c(N3CCN(C)CC3)nc12 | inactive: -0.292% | –
CC(NC(=O)CSc1ncccn1)c1ccccc1 (centres undefined) | inactive: -7.16% | –
COC(=O)CCC(=O)Nc1ccc(NC(=O)CCC(=O)OC)cc1 | inactive: 0% | –
CCC(=O)Nc1ccc(N2CCN(Cc3ccccc3F)CC2)cc1 | inactive: 15.5% | –
N#C/C(=C/c1ccc(O)cc1)c1nc(-c2ccc(-c3ccccc3)cc2)cs1 | – | active: 11.2 µM
COC(=O)[C@@H]1[C@@H]2C[C@H]3c4[nH]c5cc(OC)ccc5c4CCN3C[C@@H]2C[C@H](OC(=O)c2cc(OC)c(OC)c(OC)c2)[C@H]1OC | inactive: 7.9% [at 16.9 µM] | –
CCCCCCc1cc2cc(-c3nnc(-c4ccccc4)o3)c(=O)oc2cc1O | – | active: 1.78 µM
CC1CCCCC1NC(=O)CSc1nnc(-c2ccccc2)n1N (centres undefined) | inactive: -10.4% | –
CC(=O)N1CCC2(CC1)CC(=O)c1cc(OCC(=O)NCc3ccc(C)cc3)ccc1O2 | inactive: -12.7% | –
Cc1cc(=O)oc(C)c1C(=O)N1CCN(C(c2ccccc2)c2ccccc2)CC1 | inactive: 0.686% | –
COc1cc(C)c(-c2cc(C(=O)O)c(C)o2)cc1C(C)C | inactive: -3.86% | –
COC(=O)CSc1nc2cc(C)ccc2cc1C#N | – | active: 15.8 µM
COc1ccc(CCNc2ncnc3nc[nH]c23)cc1OC | inactive: 0% | –
O=C1N=C(N2CCOCC2)S/C1=C\c1cccs1 | inactive: -4.95% | –
Cc1c(NC(=O)c2cc(-c3ccccc3O)on2)c(=O)n(-c2ccccc2)n1C | inactive: 13.2% | –
O/N=C1\CC(O)Cc2nonc21 (centres undefined) | inactive: -6.09% | –

Compound | GFP activation | Potency
COCC(=O)N(Cc1cc2cc(OC)ccc2[nH]c1=O)c1ccccc1 | inactive: -19.9% | –
COc1cc2c(cc1OC)C(Cc1ccc(O)cc1)NCC2 (centres undefined) | inactive: 1.98% | –
CSc1nc(C)cc(/C=C\c2ccccc2)c1C#N | inactive: 1.28% | –
Cc1cc(C(=O)CCl)c(C)n1Cc1ccco1 | – | active: 12.6 µM
CCOC(=O)CNc1nc2ccccc2n2c(C)nnc12 | inactive: 8.45% | –
CCOC(=O)c1ccc(NS(=O)(=O)c2cccc3nsnc23)cc1 | inactive: -15% | –
Cc1ccc(NC(=O)/C=C/c2ccc([N+](=O)[O-])s2)cc1 | – | active: 8.91 µM
CNS(=O)(=O)c1ccc(NC(=O)c2nc3nc(C)cc(C(F)F)n3n2)cc1 | inactive: 0.781% | –
CCCC[C@@H](C=O)NC(=O)[C@H](CC(C)C)NC(=O)[C@H](CC(C)C)NC(C)=O (Ac-Leu-Leu-[Nle]-aldehyde) | – | active: 11.2 µM
O=C(CSc1ccc(-c2cccs2)nn1)Nc1ccccc1 | inactive: 2.54% | –
CCN(CC(=O)Nc1c(C(=O)OC)[nH]c2ccc(C)cc12)c1ccc2c(c1)OCO2 | inactive: -2.59% | –
O=C(COc1ccc(S(=O)(=O)NC2CCCCC2)cc1Cl)NCC1CCCO1 (centres undefined) | inactive: -19% | –
CCN(CC)CCCNC(=O)CSc1c2c(nc3cc(Cl)ccc13)CCCC2 | inactive: -0.841% | –
CCn1c(N)nc2c1c(=O)n(C)c(=O)n2C | inactive: 0% | –
CO[C@H]1/C=C/O[C@@]2(C)Oc3c(C)c(O)c4c(O)c(c(/C=N/N5CCN(C)CC5)c(O)c4c3C2=O)NC(=O)/C(C)=C\C=C\[C@H](C)[C@H](O)[C@@H](C)[C@@H](O)[C@@H](C)[C@H](OC(C)=O)[C@@H]1C | inactive: 1.05% | –
COc1cccc2c1C(=O)c1c(O)c3c(c(O)c1C2=O)C[C@@](O)(C(=O)CO)C[C@@H]3OC1C[C@@H](N)[C@H](O)[C@H](C)O1 (some centres undefined) | inactive: 2.12% | –
CCOC(=O)c1cccc(NC(=O)c2cnc3ccccc3n2)c1 | inactive: -6.8% | –
CCOC(=O)C1C(=O)C=C(/C=C/c2ccc(N(C)C)cc2)CC1c1ccccc1 (centres undefined) | – | active: 22.4 µM
O=C(CSc1nc2c([nH]c3ccccc32)c(=O)n1-c1ccc(F)cc1)NCc1ccco1 | inactive: 9.4% | –
COCCSc1ccccc1C(=O)Nc1nncs1 | inactive: -0.877% | –
C=C(CC)C(=O)c1ccc(OCC(=O)O)c(Cl)c1Cl | – | inactive
CCc1ccc(C(=O)c2cn(CC(=O)Nc3cc(F)ccc3F)c3nc(C)ccc3c2=O)cc1 | – | active: 20 µM
O=C(Nc1ccccc1)/C(=C\c1ccc2c(c1)OCO2)NC(=O)c1ccco1 | inactive: 1.89% | –
CCOC(=O)c1cn(-c2ccc(F)c(F)c2)c2c(F)c(F)c(F)c(F)c2c1=O | inactive: 5.13% | –
